# In PMC4336329 (PLoS ONE, 2015):
# The whole screen tested about 310,000 compounds, of which about 14,000 (4.5%) showed an effect of 50% or more. The effect is printed as a negative number. The list shows a part of the results.
# Biological target: human ether-à-go-go-related gene (hERG) potassium channel (human, UniProt Q12809)
# Assay: primary screen, population patch clamp on CHO cells stably expressing hERG
# 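Note: peak tail current of the secondary pulse compared with the same well before compound.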
# human ether-à-go-go-related gene (hERG) potassium channel, sequence (Q12809 whole entry, looked up): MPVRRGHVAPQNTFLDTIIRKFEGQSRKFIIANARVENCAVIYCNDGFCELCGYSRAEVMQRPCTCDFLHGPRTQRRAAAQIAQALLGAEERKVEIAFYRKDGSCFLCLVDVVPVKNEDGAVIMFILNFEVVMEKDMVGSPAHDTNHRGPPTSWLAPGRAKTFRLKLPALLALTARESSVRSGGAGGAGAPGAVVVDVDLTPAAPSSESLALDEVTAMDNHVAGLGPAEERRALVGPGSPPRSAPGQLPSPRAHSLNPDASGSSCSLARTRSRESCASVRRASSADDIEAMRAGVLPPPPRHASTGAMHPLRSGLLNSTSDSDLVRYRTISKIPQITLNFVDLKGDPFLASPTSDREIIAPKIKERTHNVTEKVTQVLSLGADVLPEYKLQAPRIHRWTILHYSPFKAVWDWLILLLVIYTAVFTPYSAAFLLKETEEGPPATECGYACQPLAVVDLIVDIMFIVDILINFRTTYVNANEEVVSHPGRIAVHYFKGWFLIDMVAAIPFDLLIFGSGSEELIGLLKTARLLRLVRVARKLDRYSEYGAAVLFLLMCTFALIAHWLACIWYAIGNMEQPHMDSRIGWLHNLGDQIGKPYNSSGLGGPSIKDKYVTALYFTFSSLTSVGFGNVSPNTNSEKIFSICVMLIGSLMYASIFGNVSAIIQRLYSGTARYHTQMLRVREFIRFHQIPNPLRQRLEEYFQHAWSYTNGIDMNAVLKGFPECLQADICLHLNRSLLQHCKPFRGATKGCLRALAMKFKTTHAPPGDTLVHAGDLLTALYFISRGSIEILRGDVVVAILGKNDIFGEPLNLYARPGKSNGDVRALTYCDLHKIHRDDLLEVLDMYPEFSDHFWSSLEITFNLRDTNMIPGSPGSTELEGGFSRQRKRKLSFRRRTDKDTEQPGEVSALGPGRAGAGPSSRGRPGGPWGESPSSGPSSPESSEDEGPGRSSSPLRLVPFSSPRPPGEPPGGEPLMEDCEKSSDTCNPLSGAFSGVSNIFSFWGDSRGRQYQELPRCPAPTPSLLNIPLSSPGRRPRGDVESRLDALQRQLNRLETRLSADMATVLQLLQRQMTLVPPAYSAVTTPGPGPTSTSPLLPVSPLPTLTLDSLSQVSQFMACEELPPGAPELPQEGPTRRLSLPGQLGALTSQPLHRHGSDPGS
row,Structure (SMILES),"hERG current change (%, negative = inhibition) at 10uM [%]"
1,O=C(O)c1c2c(nc3ccc(S(=O)(=O)N4CCC(C(=O)NC5CCCCCC5)CC4)cc13)CCCC2,18.1
2,CC(=O)Nc1ccc(S(=O)(=O)NCC(=O)OCc2cc(=O)oc3ccc4ccccc4c23)cc1,0.407
3,O=C(Nc1ccc(C(F)(F)F)cc1)OC1CN2CCC1CC2 (stereo not shown),-34.3
4,CCC(C)[C@H](NC(=O)Nc1ccccc1F)C(=O)OC (stereo partly shown),12
5,Cc1onc(-c2ccccc2Cl)c1C(=O)Nc1cccc(-c2nc3ncccn3c2C)c1,-63
6,COc1cc(-c2noc(C3CCCN(C(=O)c4c(F)cccc4F)C3)n2)cc(OC)c1OC (stereo not shown),3.54
7,CN(/N=C/c1cc(Cl)cc(Cl)c1O)C(=S)NC(C)(C)C,-48.8
8,N#C/C(=C\C1CC=CCC1)c1nc2ccccc2[nH]1 (stereo not shown),-10.5
9,CCN(CC)S(=O)(=O)c1ccc(N2CCOCC2)c(NC(=O)C(=O)c2c(-c3ccccc3)cc3ccccn23)c1,3.48
10,C[C@@H](NC(=O)c1[nH]cnc1C(=O)Nc1ccccc1)c1ccccc1,11.8
11,O=C(O)c1cccc(NC(=O)c2cn(-c3ccccc3)nc2-c2ccc(F)cc2)c1,20.4
12,CCOC(=O)N1CCN(C(=O)c2ccc(NC(=O)c3ccc(C)cc3)cc2)CC1,-13.3
13,CCOC(=O)c1sc2cc([N+](=O)[O-])cc(SCC(C)C)c2c1N,6.2
14,O=C(O)C1C2CCC(CC2)C1C(=O)N1CCN(Cc2ccc(F)cc2)CC1 (stereo not shown),24.2
15,CC(C)CCn1c(CN2CCN(C(=O)c3ccco3)CC2)nc2c1c(=O)n(C)c(=O)n2C,-39.9
16,C=CCn1c(O)c2ccc(C(=O)N=NC(=O)c3ccc(F)cc3)cc2c1O,1.04
17,CC(=O)N(/N=C1\Sc2ccccc2C1=O)c1ccccc1C,-25.6
18,Cc1ccc(Nc2nnc(SCC(=O)Nc3ncc(S(=O)(=O)c4ccc([N+](=O)[O-])cc4)s3)s2)cc1,-14.5
19,O=S(=O)(c1ccc2c(c1)OCCO2)N(Cc1ccc(F)cc1)Cc1nnc(-c2cccs2)o1,-3.03
20,CCOC(=O)c1cc(C)n(-c2ccc(Cl)cc2)c1C,-5.52
21,O=C(/C=C/c1ccc(-c2ccccc2[N+](=O)[O-])o1)c1ccco1,15.4
22,O=C(CSc1nc2ccccc2[nH]1)c1cccs1,-8.91

row,Structure (SMILES),"hERG current change (%, negative = inhibition) at 10uM [%]"
1,COC(=O)c1c(C)[nH]c(C(=O)CN(C)CC(=O)Nc2cccc(F)c2)c1C,-22.2
2,CC(=O)N1CCc2cc(S(=O)(=O)NC(C)c3ccccc3)ccc21 (stereo not shown),11
3,CCN(CCn1cccn1)C(=O)C1CCC(=O)N(CCc2cccc(F)c2)C1 (stereo not shown),7.41
4,CC(C)CCn1c(N)c(C(=O)OCC2CCCO2)c2nc3ccccc3nc21 (stereo not shown),-35.3
5,COc1ccc(-c2c(C)c3ccc(O)cc3oc2=O)cc1OC,17.9
6,COc1ccc(OC)c(/C=N/n2c(C)nc3ccccc3c2=O)c1,5
7,CC1(C)NC(=O)N(CC(=O)O)C1=O,18
8,COc1ccc(CN2CCN(Cc3ccc(OC)c(OC)c3OC)CC2)cc1.O=C(O)C(=O)O,-41.3
9,O=C(O)CCCNC(=O)c1ccc(NC(=O)Cc2ccc(Cl)cc2)cc1,19.6
10,Clc1ccc(-c2csc3ncnc(NCCN4CCOCC4)c23)cc1,-20.8
11,CN/C=C1\C(=O)C(C)(C)Oc2ccc3ccc(=O)oc3c21,10.8
12,Cc1ccc(-c2nnc(Nc3cccc(O)c3)c3ccccc23)cc1S(=O)(=O)NCCO,3.55
13,O=C(NCCc1ccccc1)C(=O)Nc1nccs1,-13.4
14,O=C(c1ccco1)N1CCN(C(=O)c2cc(-c3ccncc3)nc3ccc(Br)cc23)CC1,-72.7
15,CCN(Cc1ccccc1)C(=O)COC(=O)CNC(=O)c1ccc(C)s1,1.42
16,CC(=O)/C(=N/Nc1ccccc1)Sc1nnc(C(O)c2ccccc2)n1-c1ccccc1 (stereo not shown),-8.12
17,Cc1ccc(-c2nnn(CC(=O)N(c3ccccc3)C(C(=O)NCC3CCCO3)c3ccc(F)cc3)n2)o1 (stereo not shown),21.2
18,CCc1c(C)nc(SCC(N)=O)c(C#N)c1C,3.26
19,CCOC(=O)N1CCN(C(=O)c2ccc3c(c2)NC(=O)/C(=C\c2cccc(C)c2)S3)CC1,-15.7
20,Cc1ccsc1-c1nc(CSCC(=O)N2CCN(c3ccccc3)CC2)c(C)o1,-21.1
21,O=C(NCCCn1ccnc1)/C(=C\c1cccs1)NC(=O)c1ccco1,-45.1
22,COc1ccc(OC2CCN(S(=O)(=O)c3ccc(OC)cc3)CC2)cc1,-0.158

row,Structure (SMILES),"hERG current change (%, negative = inhibition) at 10uM [%]"
1,CC(=O)Nc1ccc(S(=O)(=O)N2CCN(C(=O)Cc3ccccc3)CC2)cc1,-1.44
2,CCc1c(C)nc(SCC(=O)N2CCCCC2C)[nH]c1=O (stereo not shown),1.22
3,COCCN(C(=O)c1ccccc1OC)c1nnc(C)s1,-5.25
4,O=C(NCCCc1ccccc1)c1c(O)nc2sccn2c1=O,0.864
5,NC(=O)c1c(NC(=O)C2c3ccccc3Oc3ccccc32)sc2c1CCCCC2,6.4
6,COc1ccccc1/C=N/N1C(=O)C(CC(=O)Nc2ccc([N+](=O)[O-])cc2OC)SC1=Nc1cccc(C)c1C (stereo not shown),16.3
7,CN(Cc1nc2ccccc2[nH]1)Cc1nc(CC2CC2)no1,-14.5
8,COc1ccc(CC(=O)Nc2nnc(-c3cccc([N+](=O)[O-])c3)s2)cc1,10.8
9,CC(CNC(=O)Cn1ccc(NC(=O)OCc2ccccc2)nc1=O)c1ccccc1 (stereo not shown),11.5
10,O=C(CNCc1ccccn1)Nc1cc(S(=O)(=O)N2CCCCC2)ccc1Cl,-19
11,COc1ccc(C2c3c(noc3C)CC(C)(O)C2C(C)=O)cc1 (stereo not shown),5.97
12,CC(C)(C)c1csc(NC(=O)CS(=O)(=O)c2ccccc2)n1,-41.8
13,CC(C)=N/N=c1\scc(C)n1Cc1ccco1,-1.92
14,Cn1c(CN(O)S(=O)(=O)c2ccc(Cl)cc2)nnc1C(F)(F)F,26
15,CN(C)CCNc1nc2sc3c(c2c(=O)n1-c1ccc(F)cc1)CCCCC3,-33.3
16,Cc1cc(=O)oc2c(C)c(OCC(=O)c3ccccc3)ccc12,19.6
17,COC(=O)C1=C(N)Oc2cc(C)n(Cc3cccnc3)c(=O)c2C1c1ccc(OC)c(OC)c1OC (stereo not shown),2.11
18,CC1CCCCC1NC(=O)COc1ncnc2sccc12 (stereo not shown),3.61
19,C=CCSc1nc(C)cc(/C=C\c2ccccc2)c1C#N,-18.9
20,CCOC(=O)c1cncn1C(C)c1ccccc1 (stereo not shown),13.3
21,Cc1ncc(N=Nc2ccc(F)cc2)c(-c2ccc(Cl)cc2)n1,4.91
22,Cl.O=C(c1ccccc1)C(CN1CCCC1)c1ccccc1 (stereo not shown),3.46

row,Structure (SMILES),"hERG current change (%, negative = inhibition) at 10uM [%]"
1,Cc1onc(-c2c(F)cccc2Cl)c1C(=O)NCc1ccco1,16.7
2,CCOC(=O)N1CCC(NC(=O)CCCC(=O)O)CC1,18.9
3,COC(=O)c1sc(S(=O)(=O)N2CCN(c3ccccc3)CC2)c(C(=O)OC)c1C,-10.7
4,C=CCn1c(SCC(=O)NC2CCS(=O)(=O)C2)nnc1-c1ccc(Cl)cc1 (stereo not shown),-15.4
5,CN(CC(=O)Nc1ccccc1Br)C(=O)c1sccc1-c1ccccc1,-19.4
6,COc1ccccc1-c1nnc(SCC(=O)Nc2ccc(Cl)cc2Cl)o1,-26.2
7,COc1cc(/C=N/NC(=O)c2cccnc2)ccc1OCC(=O)Nc1ccc(C)cc1,12.3
8,NC(=O)CSc1nc2ccccc2n1-c1ccccc1,-4.72
9,COc1ccc2c(c1)C1=NN(/C(C)=C\C(C)=O)C(c3ccccc3)C1CC2 (stereo not shown),-5.61
10,Cc1cccc(OCC(=O)OC(C)CN2CCCCC2)c1.Cl (stereo not shown),-17.7
11,CCOC(=O)N1CCN(Cc2cn[nH]c2-c2cccc3ccccc23)CC1,-4.57
12,O=[N+]([O-])c1ccc(OC(F)F)c(/C=N/n2cnnc2)c1,5.21
13,CSCCC(NC(=O)c1ccc(Cl)cc1)C(=O)OCC(=O)NCc1ccco1 (stereo not shown),-23.8
14,COc1cccc(CN2C[C@]34C=C[C@@H](C[C@@H]3S2(=O)=O)O4)c1,-0.728
15,COc1cccc(-c2c(C#N)c(SC)nc3cc(C)nn23)c1,0.381
16,Cc1cc(C(F)F)n2nc(C(=O)Nc3ccccc3Br)nc2n1,-7.89
17,O=C(NC1CCCCC1)C(c1ccccc1)N(Cc1ccco1)C(=O)c1csnn1 (stereo not shown),-25.6
18,COC(=O)c1ccc(NC(=O)CSc2nc(C)cc(=O)[nH]2)cc1,14.4
19,CCOC(=O)c1cnc(SCC(=O)OCC(=O)NC2CCS(=O)(=O)C2)nc1N (stereo not shown),10.9
